Compound in this experiment: NC1(c2ccc(-c3nc4ccn5c(=O)[nH]nc5c4cc3-c3ccccc3)cc2)CCC1 [MK-2206]
As to the kind of experiment: Viability of human cancer cell lines after 72 h of drug (GDSC screen). On the procedure:
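Human cancer cell lines in 384-well plates, medium with 10% serum, drug for 72 h over a 256-fold dose range (nine 2-fold or five 4-fold steps up to the top dose). Adherent lines were fixed and stained with the nucleic acid dye Syto60, suspension lines read with resazurin; signal relative to control wells, capped at 0 and 100%. One two-parameter sigmoid per drug and line, fitted in a mixed model over all curves with the slope shared within a line.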

Our source for the AUC and IC50 values is the supplement of paper PMC4967469.

Lines with a small IC50 respond at low doses; a fit beyond the top or the lowest dose is shown as a bound at that dose. AUC sums up the same curve from the lowest dose to the 256-fold higher top dose: 1 means no effect, lower means more sensitive.

By IC50 is commonly meant the concentration that gives 50% inhibition.

For the cell line “NCI-H1341 (small cell lung carcinoma, suspension, top dose 4 µM)”, the AUC is 0.946 and the IC50 is greater than 4 µM.

Turning to “NCI-H1355 (lung adenocarcinoma, adherent, top dose 2 µM)”, the AUC turned out to be 0.883 and the 50% inhibitory concentration (IC50) is greater than 2 µM.

Regarding “NCI-H1395 (lung adenocarcinoma, adherent, top dose 4 µM)”, the AUC came to 0.786 and the 50% inhibitory concentration (IC50) is 2.38 µM.

For “NCI-H1417 (small cell lung carcinoma, suspension, top dose 4 µM)”, the AUC came to 0.696 and the half-maximal inhibitory concentration (IC50) is 0.993 µM.

For “NCI-H1435 (lung adenocarcinoma, semi-adherent, top dose 4 µM)”, the AUC stood at 0.992 and the IC50 was greater than 4 µM.

Regarding “NCI-H1436 (small cell lung carcinoma, suspension, top dose 4 µM)”, the AUC is 0.878 and the IC50 was greater than 4 µM.

On to “NCI-H1437 (lung adenocarcinoma, adherent, top dose 4 µM)”, for which the AUC worked out at 0.789 and the 50% inhibitory concentration (IC50) is 1.85 µM.

Regarding “NCI-H1563 (lung adenocarcinoma, adherent, top dose 4 µM)”, the AUC turned out to be 0.57 and the IC50 was 0.404 µM.

For “NCI-H1568 (lung adenocarcinoma, adherent, top dose 4 µM)”, the AUC was determined as 0.941 and the half-maximal inhibitory concentration (IC50) was greater than 4 µM.

In the case of “NCI-H1623 (lung adenocarcinoma, adherent, top dose 4 µM)”, the AUC stood at 0.835 and the concentration for half-maximal inhibition (IC50) amounted to 3.51 µM.

For the cell line “NCI-H1651 (lung adenocarcinoma, adherent, top dose 4 µM)”, the AUC turned out to be 0.973 and the IC50 is greater than 4 µM.

For “NCI-H1688 (small cell lung carcinoma, adherent, top dose 4 µM)”, the AUC stood at 0.904 and the 50% inhibitory concentration (IC50) was greater than 4 µM.

Take “NCI-H1693 (lung adenocarcinoma, adherent, top dose 2 µM)”: the AUC is 0.854 and the IC50 is greater than 2 µM.

For the cell line “NCI-H1694 (small cell lung carcinoma, suspension, top dose 4 µM)”, the AUC was 0.871 and the IC50 was 3.73 µM.

Consider “NCI-H1703 (lung adenocarcinoma, adherent, top dose 4 µM)”, for which the AUC turned out to be 0.566 and the half-maximal inhibitory concentration (IC50) came to 0.394 µM.

Turning to “NCI-H1755 (lung adenocarcinoma, adherent, top dose 4 µM)”, the AUC was found to be 0.936 and the half-inhibitory concentration (IC50) is greater than 4 µM.

For the cell line “NCI-H1770 (non-small cell lung carcinoma, suspension, top dose 4 µM)”, the AUC came to 0.845 and the IC50 turned out to be 2.37 µM.

With “NCI-H1781 (lung adenocarcinoma, adherent, top dose 4 µM)”, the AUC worked out at 0.926 and the half-inhibitory concentration (IC50) is greater than 4 µM.

On to “NCI-H1792 (lung adenocarcinoma, adherent, top dose 4 µM)”, for which the AUC stood at 0.978 and the IC50 was greater than 4 µM.

On to “NCI-H1836 (small cell lung carcinoma, suspension, top dose 4 µM)”, for which the AUC stood at 0.988 and the IC50 was greater than 4 µM.

“NCI-H1869 (lung squamous cell carcinoma, adherent, top dose 4 µM)”: the AUC turned out to be 0.953 and the IC50 is greater than 4 µM.

With “NCI-H1876 (small cell lung carcinoma, adherent, top dose 4 µM)”, the AUC was 0.9 and the half-maximal inhibitory concentration (IC50) was greater than 4 µM.

With “NCI-H1944 (lung adenocarcinoma, adherent, top dose 4 µM)”, the AUC came out at 0.743 and the IC50 amounted to 1.32 µM.

“NCI-H1975 (lung adenocarcinoma, adherent, top dose 4 µM)”: the AUC came to 0.648 and the IC50 came out at 0.686 µM.

Take “NCI-H1993 (lung adenocarcinoma, adherent, top dose 4 µM)”: the AUC is 0.98 and the concentration for half-maximal inhibition (IC50) was greater than 4 µM.

As to “NCI-H2009 (lung adenocarcinoma, adherent, top dose 4 µM)”, the AUC worked out at 0.771 and the IC50 stood at 1.62 µM.

For the cell line “NCI-H2023 (lung adenocarcinoma, adherent, top dose 2 µM)”, the AUC worked out at 0.848 and the IC50 was greater than 2 µM.

Regarding “NCI-H2052 (mesothelioma, adherent, top dose 4 µM)”, the AUC stood at 0.983 and the IC50 was greater than 4 µM.

Consider “NCI-H2066 (small cell lung carcinoma, adherent, top dose 4 µM)”, for which the AUC came out at 0.752 and the IC50 is 2.32 µM.

For the cell line “NCI-H2081 (small cell lung carcinoma, suspension, top dose 4 µM)”, the AUC turned out to be 0.955 and the 50% inhibitory concentration (IC50) is greater than 4 µM.

Turning to “NCI-H2085 (lung adenocarcinoma, adherent, top dose 2 µM)”, the AUC was 0.839 and the half-maximal inhibitory concentration (IC50) is 1.52 µM.

Regarding “NCI-H2087 (lung adenocarcinoma, semi-adherent, top dose 4 µM)”, the AUC worked out at 0.969 and the IC50 is greater than 4 µM.

For the cell line “NCI-H2110 (non-small cell lung carcinoma, adherent, top dose 4 µM)”, the AUC was 0.849 and the IC50 amounted to 3.13 µM.

In the case of “NCI-H2135 (non-small cell lung carcinoma, adherent, top dose 4 µM)”, the AUC was 0.991 and the 50% inhibitory concentration (IC50) is greater than 4 µM.

As to “NCI-H2141 (small cell lung carcinoma, suspension, top dose 4 µM)”, the AUC came to 0.974 and the IC50 is greater than 4 µM.

As to “NCI-H2172 (non-small cell lung carcinoma, adherent, top dose 4 µM)”, the AUC worked out at 0.934 and the IC50 is greater than 4 µM.

Turning to “NCI-H2227 (small cell lung carcinoma, semi-adherent, top dose 4 µM)”, the AUC worked out at 0.985 and the IC50 was greater than 4 µM.

As to “NCI-H2291 (lung adenocarcinoma, adherent, top dose 4 µM)”, the AUC was determined as 0.889 and the IC50 was greater than 4 µM.

For the cell line “NCI-H2342 (lung adenocarcinoma, adherent, top dose 4 µM)”, the AUC amounted to 0.882 and the half-maximal inhibitory concentration (IC50) is greater than 4 µM.

For the cell line “NCI-H2347 (lung adenocarcinoma, adherent, top dose 4 µM)”, the AUC turned out to be 0.976 and the half-inhibitory concentration (IC50) is greater than 4 µM.

In the case of “NCI-H2405 (lung adenocarcinoma, adherent, top dose 4 µM)”, the AUC came to 0.942 and the IC50 is greater than 4 µM.

As to “NCI-H2444 (non-small cell lung carcinoma, adherent, top dose 4 µM)”, the AUC came out at 0.905 and the IC50 is greater than 4 µM.

In the case of “NCI-H2452 (mesothelioma, adherent, top dose 4 µM)”, the AUC came out at 0.971 and the IC50 was greater than 4 µM.

On to “NCI-H3122 (lung adenocarcinoma, adherent, top dose 4 µM)”, for which the AUC came to 0.87 and the half-maximal inhibitory concentration (IC50) was 3.91 µM.

For the cell line “NCI-N87 (stomach, adherent, top dose 4 µM)”, the AUC came to 0.816 and the IC50 turned out to be 3.62 µM.

“NCI-SNU-1 (stomach, suspension, top dose 4 µM)”: the AUC was determined as 0.988 and the half-maximal inhibitory concentration (IC50) was greater than 4 µM.

As to “NCI-SNU-5 (stomach, suspension, top dose 4 µM)”, the AUC is 0.824 and the IC50 was determined as 2.43 µM.

As for “NCI-SNU-16 (stomach, suspension, top dose 4 µM)”, the AUC was 0.991 and the half-maximal inhibitory concentration (IC50) was greater than 4 µM.

For the cell line NEC8 (testis, adherent, top dose 4 µM), the AUC was found to be 0.338.

Regarding “NH-12 (neuroblastoma, adherent, top dose 4 µM)”, the AUC stood at 0.926 and the IC50 is greater than 4 µM.

For the cell line “NKM-1 (acute myeloid leukaemia, suspension, top dose 4 µM)”, the AUC amounted to 0.78 and the IC50 is 1.7 µM.

In the case of “NMC-G1 (glioma, adherent, top dose 4 µM)”, the AUC came out at 0.918 and the half-inhibitory concentration (IC50) is greater than 4 µM.

Regarding “NOMO-1 (acute myeloid leukaemia, suspension, top dose 4 µM)”, the AUC was 0.709 and the half-inhibitory concentration (IC50) was 1.06 µM.

With “NOS-1 (osteosarcoma, adherent, top dose 4 µM)”, the AUC stood at 0.841 and the IC50 is 3.76 µM.

As for “NU-DUL-1 (B-cell lymphoma, suspension, top dose 4 µM)”, the AUC came to 0.664 and the half-inhibitory concentration (IC50) came to 0.646 µM.

In the case of “NUGC-3 (stomach, adherent, top dose 2 µM)”, the AUC came out at 0.95 and the IC50 is greater than 2 µM.

For “NUGC-4 (stomach, adherent, top dose 4 µM)”, the AUC turned out to be 0.951 and the 50% inhibitory concentration (IC50) is greater than 4 µM.

On to “NY (osteosarcoma, adherent, top dose 4 µM)”, for which the AUC is 0.978 and the half-maximal inhibitory concentration (IC50) is greater than 4 µM.

For the cell line “OACM5-1 (oesophagus, semi-adherent, top dose 4 µM)”, the AUC turned out to be 0.978 and the IC50 was greater than 4 µM.

As to “OACp4C (oesophagus, adherent, top dose 4 µM)”, the AUC was found to be 0.639 and the IC50 amounted to 0.657 µM.

Turning to OAW-42 (ovary, adherent, top dose 4 µM), the AUC was determined as 0.664 and the IC50 is 0.745 µM.

For OC-314 (ovary, adherent, top dose 4 µM), the AUC was 0.883 and the 50% inhibitory concentration (IC50) was 3.24 µM.

As for “OCI-AML2 (acute myeloid leukaemia, suspension, top dose 4 µM)”, the AUC turned out to be 0.995 and the concentration for half-maximal inhibition (IC50) was greater than 4 µM.
